Experimental data published in PubChem BioAssay AID504706 (National Center for Advancing Translational Sciences (NCATS), 2011).
The whole screen tested about 320,000 compounds, of which about 200 (0.062%) were called active. The shares of active, inactive and inconclusive entries below differ from those in the screen. The call rests on the fitted dose curve; in most records, active means well fitted activation curve with a large enough effect; inconclusive means small, poorly fitted or top-dose-only effect; inactive means no such curve, though single readings can be large or run the other way. Potencies of inconclusive entries are left out as doubtful fits.

Experiment: qHTS assay for re-activators of p53 using a Luc reporter; further: nearly all actives have a fitted effect of over 45% in size
Conditions: H1299 p53-A138V BP100-luciferase reporter, luminescence, 24 h; series mostly up to 92.2 µM
Summary of the method: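 H1299 (p53-null), stable ts p53-A138V + BP100-Luc; 1000 cells/well, Opti-MEM/10% FBS; cpd 4 pt, 1:5; 24 h, 37 deg C, 5% CO2; detection reagent 10 min RT; luminescence.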
Potency means the concentration at half of the fitted maximal effect; tags describe the fitted curve by direction and shape.

Row | SMILES | Potency
1 | Cc1nc2c(C(=O)NCc3cccs3)cnn2c(C)c1Cc1ccccc1 | inactive
2 | COc1ccc(NC(=O)CSc2nnnn2-c2ccccc2OC)c(OC)c1 | inconclusive [activator, partial curve, poor fit]
3 | CC(C)c1ccc(C(O)Cc2nc3ccccc3n2C)cc1 (stereo not given) | inconclusive [activator, partial curve, poor fit]
4 | Cc1ccc(-n2c(=S)[nH]c3c(oc4ccccc43)c2=O)cc1 | inconclusive [activator, partial curve, poor fit]
5 | O=C(Nc1ccc2oc(=O)ccc2c1)c1cc2ccccc2o1 | inconclusive [activator, full curve, poor fit]
6 | CN(C)c1ccc(N=Nc2cccc(F)c2)cc1 | inconclusive [activator, full curve, poor fit]
7 | COc1cnc(-c2ccccc2)nc1Oc1cccc(C)c1 | inactive
8 | COC(=O)NC(NC(=S)Nc1ccc([N+](=O)[O-])cc1)C(Cl)(Cl)Cl (stereo not given) | inactive
9 | O=C(C1CCN(c2ccc(N3CCOCC3)nn2)CC1)N1CCN(c2ccc(F)cc2)CC1 | inactive
10 | O=C(O)c1sccc1S(=O)(=O)N1CCOCC1 | inactive
11 | CCOc1ccc(NC(=S)NCc2ccc3c(c2)OCO3)cc1 | inactive
12 | CC1CN(C(=O)c2cccc(COc3ccc(Br)cc3)c2)CC(C)O1 (stereo not given) | inconclusive [activator, full curve, poor fit]
13 | CC(NC(=O)CCN1C(=O)c2ccccc2C1=O)c1ccccc1 (stereo not given) | inconclusive [activator, single point]
14 | CCCCc1cc(=O)oc2cc(OCC(=O)Nc3ccccn3)ccc12 | inconclusive [activator, partial curve, poor fit]
15 | CN(Cc1cccs1)C(=O)CNC(=O)c1ccco1 | inconclusive [activator, single point]
16 | O=C(N/N=C/C(Br)=C/c1ccccc1)C(O)c1ccccc1 (stereo not given) | inconclusive [activator, single point]
17 | Cc1cc(N/C=C\C(=O)c2ccc(Cl)c(Cl)c2)no1 | inconclusive [activator, single point]
18 | S=C(Nc1ccccc1)N1CCn2c1nc1ccccc12 | inconclusive [activator, partial curve, poor fit]
19 | O=C1CCCC(=NNC(=O)c2cc3ccccc3cc2O)C1 | inconclusive [activator, partial curve, poor fit]
20 | COc1ccc(SCC(=O)c2cc(C)c(OC(=S)N(C)C)c(C)c2)cc1 | inconclusive [activator, partial curve, poor fit]
21 | Cc1ccc(C(C)C)c(OC(=O)/C=C/c2ccccc2)c1 | inactive
22 | Cc1csc(SCCN2C(=O)c3ccccc3C2=O)n1 | inconclusive [activator, partial curve, poor fit]
23 | CCOc1ccc2c(c1)c(N=Nc1cccc(C(=O)O)c1)c(O)n2C | inconclusive [activator, partial curve, poor fit]
24 | O=C(Nc1n[nH]c(=S)s1)c1ccco1 | inactive

Row | SMILES | Potency
25 | COc1ccc(-n2c(C)cc(C(=O)NC3CCCCC3)c2C)cc1 | inconclusive [activator, full curve, poor fit]
26 | Cc1cccc(OCC(=O)O/N=C(\N)Cc2cccs2)c1 | inactive
27 | O=C(NCCc1ccc(F)cc1)c1ccc2nccnc2c1 | inconclusive [activator, full curve, poor fit]
28 | Cc1ccc(SC(C)c2nc(-c3ccncc3)no2)cc1 (stereo not given) | inconclusive [activator, partial curve, poor fit]
29 | Cc1ccc(O)c(-c2cc(-c3ccccc3[N+](=O)[O-])[nH]n2)c1 | inconclusive [activator, single point]
30 | COC(=O)CC(=O)CSc1nc2c(cc1C#N)CCCCC2 | inconclusive [activator, partial curve, poor fit]
31 | Cc1cc(O)c(/C=N/Nc2ccccc2)c(=O)o1 | inconclusive [activator, single point]
32 | Cc1cc(/C=C2/SC(=O)N(CC(=O)N3CCOCC3)C2=O)c(C)n1-c1ccccc1F | inconclusive [activator, partial curve, poor fit]
33 | O=C1c2ccccc2C(=O)N1CCCc1cn(C[C@H]2CC[C@H](Cn3cc(CCCN4C(=O)c5ccccc5C4=O)nn3)O2)nn1 | inactive
34 | Cn1cccc1C(=O)NCCc1ccc(Cl)cc1 | inactive
35 | COc1ccc(OCC(=O)Nc2ccc(Cl)cc2)cc1 | inactive
36 | Cc1c(C)c2ccc(OCC(=O)Nc3nccs3)cc2oc1=O | inconclusive [activator, partial curve, poor fit]
37 | O=c1cc(-c2ccccc2)c2ccc(O)c(CN3CCCCC3)c2o1 | inactive
38 | Cc1ccccc1NC(=O)c1ccc(-n2cncn2)nc1 | inactive
39 | c1ccc(COc2ccc(Nc3ncnc4nc[nH]c34)cc2)cc1 | inconclusive [activator, partial curve, poor fit]
40 | O=C(CC1=NCCNC(c2ccccc2)C1)c1ccccc1O (stereo not given) | inconclusive [activator, partial curve, poor fit]
41 | Cc1ccc(Nc2ncc3c(n2)CC(C)CC3=O)c(C)c1 (stereo not given) | inactive
42 | COc1ccc(N2C(=O)c3ccccc3NC2c2ccc(OC)c(Cn3nnc4ccccc43)c2)cc1 (stereo not given) | inconclusive [activator, full curve, poor fit]
43 | COc1ccc(/[N+]([O-])=C/c2ccoc2)cc1 | inconclusive [activator, partial curve, poor fit]
44 | Cc1ccc(S(=O)(=O)Nc2cccc(-c3ccc(N4CCCCCC4)nn3)c2)cc1C | inconclusive [activator, partial curve, poor fit]
45 | O=C(CNC(=S)NC(=O)c1ccccc1)c1ccccc1 | inactive
46 | CCc1ccc(NC(=O)c2cc(CC(C)C)on2)cc1 | inconclusive [activator, single point]
47 | CC(=O)Nc1ccc(OCCOc2ccc(/C=C3\C(=N)N4N=C(C)SC4=NC3=O)cc2)cc1 | inconclusive [activator, single point]
48 | Cc1ccc(N2C(=O)c3ccc(C(=O)N4CCN(Cc5ccccc5)CC4)cc3C2=O)cc1 | inactive

Row | SMILES | Potency
49 | CCOc1ccc2nc(N3C(=O)C(O)=C(C(=O)c4ccco4)C3c3ccco3)sc2c1 (stereo not given) | inconclusive [activator, partial curve, poor fit]
50 | O=C(c1ccc(Cl)cc1)c1coc2ccc(O)cc12 | inconclusive [activator, partial curve, poor fit]
51 | COc1ccc(C(=O)OCC(=O)Nc2ncc([N+](=O)[O-])s2)cc1OC | inactive
52 | Cc1cc(C(=O)N/N=C/C=C/c2ccccc2)n[nH]1 | inactive
53 | CCOC(=O)CSc1nc2ccc(C)cc2[nH]1 | inconclusive [activator, partial curve, poor fit]
54 | Cc1ccc(C(=O)Nc2nccc(C)n2)cc1 | inconclusive [activator, partial curve, poor fit]
55 | Cc1ccc(CNC(=O)CSc2nnnn2C)cc1 | inconclusive [activator, single point]
56 | C=CCN1C(=O)C(=O)N(Cc2nc3ccccc3s2)C1=O | inconclusive [activator, partial curve, poor fit]
57 | CC(C)CCN1CC(C(=O)NCCC2=CCCCC2)CC1=O (stereo not given) | inconclusive [activator, partial curve, poor fit]
58 | C=CCNc1nc(NCC)nc(N2CCOCC2)n1 | inactive
59 | O=C(CSc1nc2cc(Cl)ccc2s1)c1ccco1 | inconclusive [activator, partial curve, poor fit]
60 | CCN(CC)C(=O)CSc1nnc([C@@H](N)C(C)C)o1 | inconclusive [activator, single point]
61 | COCCNC(=O)[C@@H]1CSC2c3ccccc3C(=O)N21 (stereo not given in full) | inconclusive [activator, partial curve, poor fit]
62 | O=C(CC1C[C@H](C(=O)N2CCOCC2)[C@@]2(CCC3CCCC3)c3[nH]c4ccccc4c3CCN2C1=O)NCCc1ccccn1 (stereo not given in full) | inactive
63 | O=C(Nc1ccc(-c2nc3ccccc3s2)c(OC(=O)c2ccccc2)c1)c1ccccc1 | inconclusive [activator, partial curve, poor fit]
64 | CCOc1ccc(C(=O)NCC2CCCO2)cc1 (stereo not given) | inconclusive [activator, single point]
65 | COc1cccc(C(=O)Nc2cnn(C(C)C)c2)c1 | inconclusive [activator, partial curve, poor fit]
66 | O=C1C2C3C=CC(C3)C2C(=O)N1/N=C/c1cc(Br)cc([N+](=O)[O-])c1O (stereo not given) | inconclusive [activator, single point]
67 | Nc1ccc(Sc2cnn(-c3ccccc3)c(=O)c2Cl)cc1 | inactive
68 | O=C(N/N=C/c1ccc(OCc2ccccc2)cc1)c1cc[n+](Cc2ccccc2)cc1 | inconclusive [activator, partial curve, poor fit]
69 | C=CCn1c2[n+](c3ccccc3c1=O)CCCCC2 | inactive
70 | COc1ccc(N2CCN(C(=O)COC(=O)COc3ccc(C#N)cc3)CC2)cc1 | inactive
